Measurements from the supplement of paper PMC8728848.
Some of the results follow.

Experiments:
Experiment in all cases: glycan array binding signal (z-score within array); higher = stronger binding
Conditions in all cases: glycan notation: IUPAC condensed, linker removed
[1] = target: Fuc(a1-3)[Gal3S(b1-4)]GlcNAc
How it was run: (§1)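 Negative Z-scores can be read as non-binding. The Z-score is calculated within each array and then averaged across arrays of one protein sequence at different concentrations or buffers and across linkers. Arrays, 3228 in all, were curated from the Consortium for Functional Glycomics database and kept only where the protein sequence was available.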

[2] = target: Fuc(a1-3)[Gal3S(b1-4)]GlcNAc6S
How it was run: as §1

[3] = target: Fuc(a1-3)[GalNAc(b1-4)]GlcNAc
How it was run: as §1

Fuc(a1-4)GlcNAc = target: Fuc(a1-4)GlcNAc
How it was run: as §1

Fuc(b1-3)GlcNAc = target: Fuc(b1-3)GlcNAc
How it was run: as §1

Gal(a1-2)Gal = target: Gal(a1-2)Gal
How it was run: as §1

Gal(a1-3)Gal = target: Gal(a1-3)Gal
How it was run: as §1

Gal(a1-3)Gal(b1-3)GlcNAc = target: Gal(a1-3)Gal(b1-3)GlcNAc
How it was run: as §1

[4] = target: Gal(a1-3)Gal(b1-3)GlcNAc(b1-2)Man(a1-3)[Gal(a1-3)Gal(b1-3)GlcNAc(b1-2)Man(a1-6)]Man(b1-4)GlcNAc(b1-4)GlcNAc
How it was run: as §1

[5] = target: Gal(a1-3)Gal(b1-3)[Fuc(a1-4)]GlcNAc(b1-2)Man(a1-3)[Gal(a1-3)Gal(b1-3)[Fuc(a1-4)]GlcNAc(b1-2)Man(a1-6)]Man(b1-4)GlcNAc(b1-4)GlcNAc
How it was run: as §1

Gal(a1-3)Gal(b1-4)Glc = target: Gal(a1-3)Gal(b1-4)Glc
How it was run: as §1

Gal(a1-3)Gal(b1-4)GlcNAc = target: Gal(a1-3)Gal(b1-4)GlcNAc
How it was run: as §1

[6] = target: Gal(a1-3)Gal(b1-4)GlcNAc(b1-3)GalNAc
How it was run: as §1

[7] = target: Gal(a1-3)Gal(b1-4)[Fuc(a1-3)]GlcNAc
How it was run: as §1

[8] = target: Gal(a1-3)Gal(b1-4)[Fuc(a1-3)]GlcNAc(b1-2)Man(a1-3)[Gal(a1-3)Gal(b1-4)[Fuc(a1-3)]GlcNAc(b1-2)Man(a1-6)]Man(b1-4)GlcNAc(b1-4)GlcNAc
How it was run: as §1

Gal(a1-3)GalNAc = target: Gal(a1-3)GalNAc
How it was run: as §1

[9] = target: Gal(a1-3)[Gal(a1-4)]Gal(b1-4)GlcNAc
How it was run: as §1

[10] = target: Gal(a1-4)Gal(b1-3)GlcNAc(b1-2)Man(a1-3)[Gal(a1-4)Gal(b1-3)GlcNAc(b1-2)Man(a1-6)]Man(b1-4)GlcNAc(b1-4)GlcNAc
How it was run: as §1

Gal(a1-4)Gal(b1-4)Glc = target: Gal(a1-4)Gal(b1-4)Glc
How it was run: as §1

Gal(a1-4)Gal(b1-4)GlcNAc = target: Gal(a1-4)Gal(b1-4)GlcNAc
How it was run: as §1

[11] = target: Gal(a1-4)Gal(b1-4)GlcNAc(b1-2)Man(a1-3)[Gal(a1-4)Gal(b1-4)GlcNAc(b1-2)Man(a1-6)]Man(b1-4)GlcNAc(b1-4)GlcNAc
How it was run: as §1

[12] = target: Gal(a1-4)Gal(b1-4)GlcNAc(b1-3)Gal(b1-4)Glc
How it was run: as §1

Gal(a1-4)GlcNAc = target: Gal(a1-4)GlcNAc
How it was run: as §1

Gal(a1-6)Glc = target: Gal(a1-6)Glc
How it was run: as §1

Gal(b1-2)Gal = target: Gal(b1-2)Gal
How it was run: as §1

Gal(b1-3)Gal = target: Gal(b1-3)Gal
How it was run: as §1

Gal(b1-3)Gal(b1-4)GlcNAc = target: Gal(b1-3)Gal(b1-4)GlcNAc
How it was run: as §1

[13] = target: Gal(b1-3)Gal(b1-4)GlcNAc(b1-2)Man(a1-3)[Gal(b1-3)Gal(b1-4)GlcNAc(b1-2)Man(a1-6)]Man(b1-4)GlcNAc(b1-4)GlcNAc
How it was run: as §1

Gal(b1-3)GalNAc = target: Gal(b1-3)GalNAc
How it was run: as §1

[14] = target: Gal(b1-3)GalNAc(a1-3)[Fuc(a1-2)]Gal(b1-4)Glc
How it was run: as §1

[15] = target: Gal(b1-3)GalNAc(a1-3)[Fuc(a1-2)]Gal(b1-4)GlcNAc
How it was run: as §1

[16] = target: Gal(b1-3)GalNAc(b1-3)Gal(a1-4)Gal(b1-4)Glc
How it was run: as §1

[17] = target: Gal(b1-3)GalNAc(b1-4)Gal(b1-4)Glc
How it was run: as §1

[18] = target: Gal(b1-3)GalNAc(b1-4)[Neu5Ac(a2-3)]Gal(b1-4)Glc
How it was run: as §1

Gal(b1-3)GlcNAc = target: Gal(b1-3)GlcNAc
How it was run: as §1

[19] = target: Gal(b1-3)GlcNAc(a1-6)Gal(b1-4)GlcNAc
How it was run: as §1

[20] = target: Gal(b1-3)GlcNAc(b1-2)Man(a1-3)[Gal(b1-3)GlcNAc(b1-2)Man(a1-6)]Man(b1-4)GlcNAc(b1-4)GlcNAc
How it was run: as §1

[21] = target: Gal(b1-3)GlcNAc(b1-2)Man(a1-3)[Gal(b1-3)GlcNAc(b1-2)Man(a1-6)]Man(b1-4)GlcNAc(b1-4)[Fuc(a1-6)]GlcNAc
How it was run: as §1

[22] = target: Gal(b1-3)GlcNAc(b1-3)Gal(b1-3)GlcNAc
How it was run: as §1

[23] = target: Gal(b1-3)GlcNAc(b1-3)Gal(b1-4)Glc
How it was run: as §1

[24] = target: Gal(b1-3)GlcNAc(b1-3)Gal(b1-4)GlcNAc
How it was run: as §1

[25] = target: Gal(b1-3)GlcNAc(b1-3)Gal(b1-4)GlcNAc(b1-6)[Gal(b1-3)GlcNAc(b1-3)]Gal(b1-4)Glc
How it was run: as §1

[26] = target: Gal(b1-3)GlcNAc(b1-3)Gal(b1-4)[Fuc(a1-3)]GlcNAc(b1-6)[Gal(b1-3)GlcNAc(b1-3)]Gal(b1-4)Glc
How it was run: as §1

[27] = target: Gal(b1-3)GlcNAc(b1-3)GalNAc
How it was run: as §1

[28] = target: Gal(b1-3)GlcNAc(b1-6)Gal(b1-4)GlcNAc
How it was run: as §1

[29] = target: Gal(b1-3)[Fuc(a1-4)]GlcNAc
How it was run: as §1

[30] = target: Gal(b1-3)[Fuc(a1-4)]GlcNAc(b1-2)Man(a1-3)[Gal(b1-3)[Fuc(a1-4)]GlcNAc(b1-2)Man(a1-6)]Man(b1-4)GlcNAc(b1-4)GlcNAc
How it was run: as §1

[31] = target: Gal(b1-3)[Fuc(a1-4)]GlcNAc(b1-2)Man(a1-3)[Gal(b1-3)[Fuc(a1-4)]GlcNAc(b1-2)Man(a1-6)]Man(b1-4)GlcNAc(b1-4)[Fuc(a1-6)]GlcNAc
How it was run: as §1

[32] = target: Gal(b1-3)[Fuc(a1-4)]GlcNAc(b1-3)Gal(b1-3)[Fuc(a1-4)]GlcNAc
How it was run: as §1

[33] = target: Gal(b1-3)[Fuc(a1-4)]GlcNAc(b1-3)Gal(b1-4)GlcNAc
How it was run: as §1

[34] = target: Gal(b1-3)[Fuc(a1-4)]GlcNAc(b1-3)Gal(b1-4)[Fuc(a1-3)]GlcNAc
How it was run: as §1

[35] = target: Gal(b1-3)[GlcNAc(b1-6)]GalNAc
How it was run: as §1

[36] = target: Gal(b1-3)[Neu5Ac(a2-6)]GalNAc
How it was run: as §1

[37] = target: Gal(b1-3)[Neu5Ac(a2-6)]GlcNAc(b1-6)Gal(b1-4)Glc
How it was run: as §1

[38] = target: Gal(b1-3)[Neu5Ac(b2-6)]GalNAc
How it was run: as §1

[39] = target: Gal(b1-4)GalNAc(a1-3)[Fuc(a1-2)]Gal(b1-4)GlcNAc
How it was run: as §1

[40] = target: Gal(b1-4)GalNAc(b1-3)[Fuc(a1-2)]Gal(b1-4)GlcNAc
How it was run: as §1

Gal(b1-4)Glc = target: Gal(b1-4)Glc
How it was run: as §1

Gal(b1-4)Glc6S = target: Gal(b1-4)Glc6S
How it was run: as §1

Gal(b1-4)GlcNAc = target: Gal(b1-4)GlcNAc
How it was run: as §1

B1: SLP (Clostridium difficile), Q183M8 (protein)
chain: MATTGTQGYTVVKNDWKKAVKQLQDGLKDNSIGKITVSFNDGVVGEVAPKSANKKADRDAAAEKLYNLVNTQLDKLGDGDYVDFSVDYNLENKIITNQADAEAIVTKLNSLNEKTLIDIATKDTFGMVSKTQDSEGKNVAATKALKVKDVATFGLKSGGSEDTGYVVEMKAGAVEDKYGKVGDSTAGIAINLPSTGLEYAGKGTTIDFNKTLKVDVTGGSTPSAVAVSGFVTKDDTDLAKSGTINVRVINAKEESIDIDASSYTSAENLAKRYVFDPDEISEAYKAIVALQNDGIESNLVQLVNGKYQVIFYPEGKRLETKSLEHHHHHH
glycan array binding signal (z-score) [1]: -0.151 | glycan array binding signal (z-score) [2]: -0.026 | glycan array binding signal (z-score) [3]: -0.178 | glycan array binding signal (z-score) (Fuc(a1-4)GlcNAc): -0.158 | glycan array binding signal (z-score) (Fuc(b1-3)GlcNAc): -0.167 | glycan array binding signal (z-score) (Gal(a1-2)Gal): -0.157 | glycan array binding signal (z-score) (Gal(a1-3)Gal): -0.209 | glycan array binding signal (z-score) (Gal(a1-3)Gal(b1-3)GlcNAc): -0.191 | glycan array binding signal (z-score) [4]: -0.046 | glycan array binding signal (z-score) [5]: 12.1 | glycan array binding signal (z-score) (Gal(a1-3)Gal(b1-4)Glc): -0.181 | glycan array binding signal (z-score) (Gal(a1-3)Gal(b1-4)GlcNAc): -0.178 | glycan array binding signal (z-score) [6]: -0.163 | glycan array binding signal (z-score) [7]: -0.186 | glycan array binding signal (z-score) [8]: -0.125 | glycan array binding signal (z-score) (Gal(a1-3)GalNAc): -0.169 | glycan array binding signal (z-score) [9]: -0.137 | glycan array binding signal (z-score) [10]: -0.087 | glycan array binding signal (z-score) (Gal(a1-4)Gal(b1-4)Glc): -0.185 | glycan array binding signal (z-score) (Gal(a1-4)Gal(b1-4)GlcNAc): -0.156 | glycan array binding signal (z-score) [11]: 0.537 | glycan array binding signal (z-score) [12]: -0.153 | glycan array binding signal (z-score) (Gal(a1-4)GlcNAc): -0.172 | glycan array binding signal (z-score) (Gal(a1-6)Glc): -0.14 | glycan array binding signal (z-score) (Gal(b1-2)Gal): -0.185 | glycan array binding signal (z-score) (Gal(b1-3)Gal): -0.154 | glycan array binding signal (z-score) (Gal(b1-3)Gal(b1-4)GlcNAc): -0.199 | glycan array binding signal (z-score) [13]: -0.17 | glycan array binding signal (z-score) (Gal(b1-3)GalNAc): -0.166 | glycan array binding signal (z-score) [14]: -0.138 | glycan array binding signal (z-score) [15]: -0.122 | glycan array binding signal (z-score) [16]: -0.155 | glycan array binding signal (z-score) [17]: -0.022 | glycan array binding signal (z-score) [18]: -0.141 | glycan array binding signal (z-score) (Gal(b1-3)GlcNAc): -0.181 | glycan array binding signal (z-score) [19]: -0.186 | glycan array binding signal (z-score) [20]: -0.082 | glycan array binding signal (z-score) [21]: -0.16 | glycan array binding signal (z-score) [22]: -0.209 | glycan array binding signal (z-score) [23]: 3.65 | glycan array binding signal (z-score) [24]: -0.207 | glycan array binding signal (z-score) [25]: -0.178 | glycan array binding signal (z-score) [26]: -0.152 | glycan array binding signal (z-score) [27]: -0.141 | glycan array binding signal (z-score) [28]: -0.201 | glycan array binding signal (z-score) [29]: -0.182 | glycan array binding signal (z-score) [30]: 7.99 | glycan array binding signal (z-score) [31]: 5.55 | glycan array binding signal (z-score) [32]: -0.138 | glycan array binding signal (z-score) [33]: -0.182 | glycan array binding signal (z-score) [34]: -0.174 | glycan array binding signal (z-score) [35]: 0.097 | glycan array binding signal (z-score) [36]: -0.129 | glycan array binding signal (z-score) [37]: 1.18 | glycan array binding signal (z-score) [38]: -0.129 | glycan array binding signal (z-score) [39]: -0.166 | glycan array binding signal (z-score) [40]: -0.158 | glycan array binding signal (z-score) (Gal(b1-4)Glc): -0.156 | glycan array binding signal (z-score) (Gal(b1-4)Glc6S): -0.116 | glycan array binding signal (z-score) (Gal(b1-4)GlcNAc): -0.203
